Here are results for 73 sequences from publication PMC10726135.

Some of the results follow. At the low end of the ranking the order means little. The protein was read in a cell extract, so binding may be indirect.

For the experiment, the target named is T1, HNF4alpha8 (COS-7 nuclear extract) (UniProt P41235-5).
T1 sequence: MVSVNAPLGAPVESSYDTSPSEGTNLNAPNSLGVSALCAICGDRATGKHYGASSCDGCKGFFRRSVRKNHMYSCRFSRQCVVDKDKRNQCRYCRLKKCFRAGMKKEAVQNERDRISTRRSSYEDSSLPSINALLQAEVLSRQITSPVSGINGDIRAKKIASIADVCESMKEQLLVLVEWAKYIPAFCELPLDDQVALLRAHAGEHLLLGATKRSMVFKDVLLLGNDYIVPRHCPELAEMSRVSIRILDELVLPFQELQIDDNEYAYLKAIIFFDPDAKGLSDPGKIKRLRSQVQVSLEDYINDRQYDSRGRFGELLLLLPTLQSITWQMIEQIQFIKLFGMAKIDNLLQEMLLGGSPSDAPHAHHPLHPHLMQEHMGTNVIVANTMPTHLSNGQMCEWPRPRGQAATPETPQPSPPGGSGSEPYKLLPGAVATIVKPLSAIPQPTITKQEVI
Kind of experiment: protein-binding microarray. Particulars: COS-7 nuclear extract on double-stranded Agilent 4x180k PBM; binding buffer, salt, pH and temperature not given; high values mean tight binding; double strand, one strand shown; sequences stand for … in …GCCTAGGGAGATTAGAGTATCGGTCGA
As for CTCTGAATCCTCAACATCCAGCACAGTGCT, the binding signal (log2 normalized intensity) is -1.34. Consider ATTCGTTCATCAGATTAGAAGGCAGAGAAA, for which the binding signal (log2 normalized intensity) was 0.72. To CTGTTGTGACATACTGCCTTTCTAGAACCA belongs -1.27; to TGTCTACAAACACAGAAGTGGACCTTCACC, 5.41; to GGGCAGGGTCAGAACCTGCCCATGACCTTT, 6.45.

Take GCAAGGGTGGTGACAAAGACAGATTAGATC: the binding signal (log2 normalized intensity) is -0.00202.

For AATCTCTCAAATCTAGCCAATGATGCTAGC, the binding signal (log2 normalized intensity) was -1.28. With CAGAGTCACCTGTAGGGATGTGGGACTTAA, the binding signal (log2 normalized intensity) is 0.446. Regarding ATTCTCCCATTTTATGGGCTAACGCTGCTG, the binding signal (log2 normalized intensity) was -1.4. As for AGGGTTGAAGAAAGATCACACAAATGGATC, the binding signal (log2 normalized intensity) is -1.25.

Consider AAAGTCCGGAATTTCCTCCTGGCAGAGCAT, for which the binding signal (log2 normalized intensity) was -0.791. As to TCTTTTTGTTGTTAGAACAAAGTCCAAATT, the binding signal (log2 normalized intensity) is 6.11. As for AGTCAGTCAAAATGAATAGTCCTTTAGGAA, the binding signal (log2 normalized intensity) stood at 0.806.

Turning to TCCCGAAAGTGACCCTCTGCCCCCTACACA, the binding signal (log2 normalized intensity) is 5.92. As to TTGTTAGACCCTTATCAGTAGTTCTCCTTT, the binding signal (log2 normalized intensity) came out at 0.79. To CCCCACTGAAAGTGTGTTAAATTGAATTGG belongs 0.492; to GGTCCAAGGTTCAGAGCCTGGCTGGCCTGG, 1.5. As to CCATCCTACAGGGTATGAATTTAACCTTTG, the binding signal (log2 normalized intensity) amounted to 4.92.

Consider TCCATCATTCATACATTTGCCTGAACTTTA, for which the binding signal (log2 normalized intensity) is 3.06. For AAATGTTATGGCTGGTTTGGTCTTTTATCT, the binding signal (log2 normalized intensity) came out at 1.9. For CCCTGGACCTTGTCATACTGGTTGAATGGA, the binding signal (log2 normalized intensity) is 2.73. In the case of GGGTACAGACAATAGGAAGAGTGAGGTCAC, the binding signal (log2 normalized intensity) amounted to 2.23.

For the sequence ATCACGGACTATCCCCGTCCGCGGAAGCAC, the binding signal (log2 normalized intensity) was determined as 0.356. With TTATTTCCCCTTTCTGTTGGAAGCTGATAA, the binding signal (log2 normalized intensity) worked out at 1.53.

As for AATTCACGTCATTTTGTCACCTACATGTGA, the binding signal (log2 normalized intensity) was 1.31. Regarding TTTCTGAAGACCTTCAACTGATTAGATAAG, the binding signal (log2 normalized intensity) was -1.01. Turning to AAGTGCAAGGGCCCAGAGGAAGGAATGCAC, the binding signal (log2 normalized intensity) was -0.828. As to GTCGAAACTACAAACGGATATTTGATCAAA, the binding signal (log2 normalized intensity) turned out to be 0.459. As to GGCGATAACTCCTTTGTGTGAATCGACCTT, the binding signal (log2 normalized intensity) was 4.32. Regarding AGGGTACACACCGTTAGCCAATATTTGCAA, the binding signal (log2 normalized intensity) is -1.26. Consider TGTGATAAGAAATGAATGTCACTTTCTGAC, for which the binding signal (log2 normalized intensity) was found to be 0.366. With ACCCAGTGAATTCCTTCCTTATCAGCAGCC, the binding signal (log2 normalized intensity) is -1.24. Turning to TGGGCCAGGTATTTGGACTTTTTGTAGTTT, the binding signal (log2 normalized intensity) was determined as 3.34.

As for AGGCCTTCAACTGATAAGAAGGGGCCTAGC, the binding signal (log2 normalized intensity) is -1.14. To GCGTAGTTCAGAGAAAACGAGGCACTATCT belongs -1.28.

For the sequence CTTTTGAGGGTGACCGATCGTTATTGCCTT, the binding signal (log2 normalized intensity) was found to be 0.556.

As for CTCAAAGTCCACCAACTCTGTGAATTCATT, the binding signal (log2 normalized intensity) worked out at 1.24. With GGGTTGAGTGGTGACTGAAGTCCAACCCTC, the binding signal (log2 normalized intensity) was determined as 2.99. Regarding AACCTGGCTGCGAGTCCCTGCTGTGTCACG, the binding signal (log2 normalized intensity) was -0.901. With ATCAATACCAGCCAATTAGAAGGCTCCCTG, the binding signal (log2 normalized intensity) was -1.37. AGCTCCCCTTTTAAACTGAAGCATGCTATT: the binding signal (log2 normalized intensity) was 0.869. To TCTGCCGAAGATATTTAACCTAAATCTAGT belongs -1.36; to ATCAAACAGATGTAGACATTGGAATGCGGG, 1.17; to AACTATTGAGACTTTGGGGTTTTATGGCAC, 1.3. To TCAACAATTCTATGAGTAGGTACAAATTCC belongs 2.45. In the case of GAGATTACATTTGACTGAGGTGCAGGACAA, the binding signal (log2 normalized intensity) is -0.867. To ACAAAGTCTATGCTAAGATGGTCTCAGGTG belongs 1.07. For TCAGCAGAAGGCCCCAGGTGAACCAGGGTG the value was -1.19; for TTTTCCTCGGGTGTCTCCGAGATAAGGCGT, -0.295; for CTGGCAAAGCCATGAAGCAATTCTGAGCCC, -1.37. As for GTGACCTTAGACCCCTGAATAGGTCTTGGA, the binding signal (log2 normalized intensity) came out at 3.72. Regarding ATATTATCATTGCCTCTGGTATGCAGAAAA, the binding signal (log2 normalized intensity) is 1.52. For GTCTGTGTTCACATAGGGGCCTTTAGCACC the value was 1.52. Regarding AATCTGCAGCCGCCGGAGAATTAAACTGCC, the binding signal (log2 normalized intensity) was -1.38. AGGATGAGAATCCACCTGCCTGCTTGGCCT: the binding signal (log2 normalized intensity) was -1.42. As for GGAATGCTATTTGCATTGACACAACCCAAC, the binding signal (log2 normalized intensity) is -1.32. For GCAGTGATCAGTGTTGAGAATCCCTCCCCT, the binding signal (log2 normalized intensity) worked out at 3.51. TGGCATTCTTGAGCTACCGCCTGAACCTTG: the binding signal (log2 normalized intensity) worked out at 2.81. As for AACCCTGGCCACTCCCTGATAGAGAACAAG, the binding signal (log2 normalized intensity) is -1.32. To TTTGCAACCTTTGATAACCTACAACCTTCT belongs 1.19; to AGGCTGAAGGGAAGCTCTGGGAGTGCCCTT, 2.63; to AGAGAAACAAATCTGCTTTCTACCCTGAGG, -1.15.

Take CTGCTAACAGATAAAGGGTGGTAAAGATGT: the binding signal (log2 normalized intensity) was 0.032. To CACAGAGCAAAGGTCATGCATAGAAGTATG belongs 4.43; to TGTCTCACCTCGCTATCACCCCGATAAGGA, 3.03. To GGGCTCAAACAATCCTCCCACCTCAGCATC belongs 1.23. In the case of TCCCCACCTTCCATTACCACATTCTCACCA, the binding signal (log2 normalized intensity) was determined as 1.22. For CCAGTTGGTGGGTCAAGGTGCAAAGAGATG, the binding signal (log2 normalized intensity) was found to be 2.79.

As for CTTTGATAGCCAAGCCAACCAGGAGAATTT, the binding signal (log2 normalized intensity) came to 2.31.

On to CTTTAACGACCTTTGGACTTGAATTATCCT, for which the binding signal (log2 normalized intensity) was 8.83. For CTAACCTTGAGGAGCCCTATCCGCAGCTGC the value was -1.39. On to TAAAGTATGTGGTGGGTGTGGTGATGGCAG, for which the binding signal (log2 normalized intensity) amounted to 1.01. As to TTACACTGGCTGCCCTGGGGATCAAAGCGT, the binding signal (log2 normalized intensity) was -0.422.
